Measurements taken from the supplement of paper PMC10126150.
Values marked as one replicate rest on one cluster of the flow cell; about a third of the high ones do not repeat.

Test system: ATP
Assay: switch fluorescence ratio, 500 uM ATP over buffer (Cy3 cluster intensity, sum of 5 cycles each) (fold (ratio)); higher = stronger signal-on switching upon ATP binding; sequences stand for … in TCGTCGGCAGCGTCAGATGTGTATAAGAGACAGTTTTTTTTTTTTTTTTTTTTTTTTT…TC
Conditions: aptamer strand: ATP DNA aptamer (quencher-CACCTGGGGGAGTATTGCGGAGGAAGG + anchor), 100 nM annealed; ATP concentration: 500 uM; one replicate
Procedure, shortened: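 Cy3-labelled switching-strand clusters on a modified Illumina MiSeq flow-cell were annealed to 100 nM quencher-labelled ATP aptamer and imaged first in selection buffer, then after 15 min with 500 uM ATP at 22 °C. NaOH stripping and re-annealing separated each of five buffer/ATP cycles, and clusters outside 100-1000 RFU were excluded. The fluorescence ratio sums target-cycle Cy3 intensity over buffer-cycle Cy3 intensity per cluster and averages it per switch-domain sequence.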
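Note: ATP exposure 15 min at 22 °C before imaging.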

Sequence	switch fluorescence ratio
GTTACATCAG	1.06
AGCAGTTAGA	0.988
CCCTAAATAT	1.1
CCCAGTAGAC	2.32
ATAGTGATGG	0.999
AACGGTGGCT	0.944
AAGAAGGGCG	0.881
GGCCCGGTTC	1.04
CCAAACTCAC	1.21
TAGGGAGACG	0.964
AGCTTAGTAA	0.99
GATTCTTGAT	0.956
TCTTGTCACT	1.05
GTAACGGGAC	1.13
AAGGTCTGCA	0.973
AACTAGCTGA	1.03
CAAACGGGAG	1.03
CGGGTTAACA	1.04
TAGCGCTAAA	1.22
ATTCCTCCGG	5.48
GGTACGGCGC	0.996
GAGGACGTTT	1.03
CCCAGGTGGG	4.61
TCACTTGTGC	0.983
GGGACATGTC	1.01

Sequence	switch fluorescence ratio
ATTGGGCAAC	1.07
TGCACCTACG	1.5
ACGGTAACGG	0.999
TCCGCCTGGG	1.24
GGTTCAATAG	1.15
TTGAATCTT	0.971
GGTTTATAAT	1.01
GCTGTATCAG	1.01
CTTCCCAAGG	4.15
TCATATCGGC	0.974
GGTATGTGAA	0.999
GCCCGAAGTT	1.01
CGCCGCTGGA	1.41
GTGATGGCGA	1.08
GGTACTTTGA	1.1
ATTGAGTGCG	1.03
GGCTAGGATA	0.993
CAGCCCAGCA	1.02
ACATCTTTTT	1.02
TCCTGAGTAC	1.01
GATGGTCCGA	1
ACTTGGAATA	1.05
TTTCATGGAC	0.988
CCTGAACGCC	1.98
TACTAAATGG	1.01

Sequence	switch fluorescence ratio
CCAGAGCGCA	1.96
GGACGCGGC	1.02
AAAGGGTCGT	0.946
AGTTCTGCGT	1.09
AGCAATGGCC	1.94
CCGATTCTCT	1.09
AGCGTTGGAG	1.03
CTACCTTCTG	1.2
CTTGGACTTG	0.929
ACGCGGCTC	1.12
CAGGAGACAG	0.944
GTGGGTTGC	0.975
TACCAAAGCG	1.07
ATCCTCTAAT	1.05
GAGCTACTCT	1.31
AGAATACGTT	1.03
TATGGTCTTC	1.02
ATCTGAAGTC	1.04
CCCAACTATC	1.16
TACCACTAAT	1.05
ATGTGAAAAT	1.02
AAGTAGGTTC	0.924
AATTTATCAC	0.992
TAAAATGTGT	1.01
GCTAGCGATG	0.989

Sequence	switch fluorescence ratio
GTAATGACGA	1.04
TGAAGTGCTA	1.04
CTGGACGGTT	0.981
TGGGAAGCGT	0.914
ACAATTAGTG	1.02
CACAGAAGGG	1.01
TTGCATGCAT	1.01
GCCAAGATTA	0.988
CGCCGGGGTA	1
GTTTAATAGT	0.993
CGGGACGGAT	1
ATTGGTGGCG	1.07
TTCAAAACG	0.963
TAAGGTTCC	0.991
CCAGGGGAGA	1
CTGATGCGAC	2.85
GGTGCACCGC	0.994
GTGGTACATC	1.03
GGCCCTGTCC	1.04
ATCGGACCCT	1.03
CGTAAACGGT	0.977
AACTTGTAT	1.01
GCAATAATAT	1.1
GAACAATTTG	1.01
TTGGACTTGC	0.991

Sequence	switch fluorescence ratio
TGCGCACACC	1.25
CGAACTCGGG	1.03
AATGCTTAAG	1
TATTTCCCTG	0.962
GTGAGTGTCG	1.03
ACATCTGAGA	0.997
GCTGATAGCC	0.979
GCAAGTCGGA	1.01
TAATGTTAG	0.989
TTGTGCCCGA	1.01
TAGAGATTTA	0.993
CTATGAACCA	1.05
CACTTTCATT	1.04
GCCGAGGTGC	1.2
GGTGCGGACG	1
CAATTAAGG	0.999
ATCCAAGATG	1
ATGTCAAGCT	1.03
TGCACGCCCC	1.93
AATTAATAAA	1
CACGAGAGTT	1.03
CACCTATCCG	0.985
ATGGATGGTC	0.958
CTAAGATGTG	1.01
TGACCCACGA	1.42

Sequence	switch fluorescence ratio
AAGTCAGAGA	1.02
CTACTGTTGA	1.03
TAATCATACC	0.992
AAAGCGACGA	1.22
GTCGACGGC	1.01
GCTTATACAT	1.02
GCAGAAAGGG	1.15
CTCGACAGCT	1
GACGCCGCCG	1.08
GTTTGCCAAA	0.998
CAGAGAGGCA	0.96
TGCGTAGCTT	0.951
GGGAAAATC	0.958
CTAGGATATT	0.987
CCTTGTTCGC	1.19
GTCGAGGCGA	1.02
TGGATTAGT	1.02
GGTCTGTGAA	0.977
CAGGGTGCGC	1.06
TTGGAGTAAT	1.34
TAGAATCTTC	0.996
TACGGAAGCC	0.978
TGAGGCTTAG	1.02
ATCTTTAAAT	1
ATATCTGGGA	0.974

Sequence	switch fluorescence ratio
CCGAGGGTCC	1.08
AATGCGTTTG	1
GCGCGGTTCA	1.01
GGTCCATTCA	0.97
TAATGAGGAC	0.937
AGCTGTGCAT	1.23
CGTAGAGAAC	1.16
TGTTACGATG	0.973
GAGATCTTGT	0.964
CCGTGGATGG	1.17
ATGTGGGTCG	1.25
GCTTTTGCGT	0.981
CCGTCATTAA	2.37
CTTGGAACTC	1
CGGTTACGGT	0.993
TTTTGAGAGC	1.12
ACTATTTAAC	1.06
GGGGACCGAG	1.05
CGCACCTGGA	1.06
GGGCCACTCC	1.05
GAAGGTAAAC	1.03
ACAGAATGT	0.976
ACATGCTAG	1.02
GATCGTTCGC	1.03
AAGTCCGAAT	0.983

Sequence	switch fluorescence ratio
GGATCACCAT	0.982
CGTCCGGCCT	1.09
GGTTTTACTG	1.05
GCACCTGGTC	1.09
TGAATAGGCT	0.999
TGAAGGTTAG	0.954
AGGGAAAGAA	0.944
AGGAGGATTT	0.979
TTTGCATGTC	1.09
GCTTTCGGGG	0.964
GGCGAGGGGT	1.02
AAGAATGAGA	0.979
CCATGAGGTT	0.986
TACATGACCG	1.1
GCAGGACTTT	1.02
ATGTGGGCGA	0.966
AAGCCGATTA	1.01
GCTGACTGTT	1.01
ACACTCCTTT	1.03
GAGAGTCAAA	0.969
CTCCTGGTAG	1.21
ATCTCAGACT	1.02
TTAACGTAAT	1.29
AGTAAGCTAA	0.964
AGGAATGTGC	0.959
